Reference: patent US20250197483A1

B1: N6LS.C15 (antibody)
heavy: RAHLVQSGTAMKKPGASVRVSCQTSGYTFTAHILFWFRQAPGRGLEWVGWIKPQYGAVNFGGGFRDRVTLTRQLSQDPDDPDWGIAYMDIRGLKPDDTAVYYCARDRSYGDSSWALDAWGQGTTVVVSA[human IgG1 constant region with changes cut from this listing]
light: YIHVTQSPSSLSVSIGDEVTINCQTSQGVGSDLHWYQHKPGEAPELLIHHTSSVEDGVPSRFSGSGFHTSFNLTISDLQADDIATYYCQVLQFFGRGSRLHIKRTVAAPSVFIFPPSDEQLKSGTASVVCLLNNFYPREAKVQWKVDNALQSGNSQESVTEQDSKDSTYSLSSTLTLSKADYEKHKVYACEVTHQGLSSPVTKSFNRGEC
B2: N6LS.C35 (antibody)
heavy: RAHLVQSGTAMKEPGASVRVSCQTSGYTFTAHILFWFRQAPGRGLEWVGWIKPQYGAVNFGGGFRDRVTLTRQLSQDPDDPDWGIAYMDIRGLKPDDTAVYYCARDRSYGDSSWALDAWGQGTTVVVSA[human IgG1 constant region with changes cut from this listing]
light: YIHVTQSPSSLSVSIGDEVTINCQTSQGVGSDLHWYQHKPGEAPELLIHHTSSVEDGVPSRFSGSGFHTSFNLTISDLQADDIATYYCQVLQFFGRGSRLHIKRTVAAPSVFIFPPSDEQLKSGTASVVCLLNNFYPREAKVQWKVDNALQSGNSQESVTEQDSKDSTYSLSSTLTLSKADYEKHKVYACEVTHQGLSSPVTKSFNRGEC
B3: VRC07-523LS.v34 (antibody, human IgG1, kappa)
heavy: QVRLSQSGGQMKKPGDSMRISCSASGYEFINCPINWIRLAPGKRPEWMGWMKPRFGAVSYARQLQGRVTMTRQLSQDPDDPDWGTAFLELRSLTSDDTAVYFCTRGSYCTARDYYNWDFEHWGQGTPVTVSS[human IgG1 constant region with changes cut from this listing]
light: LTQSPGTLSLSPGETAIISCETSQYGSLAWYQQRPGQAPRLVIYSGSTRAAGIPDRFSGSRWGPDYNLTISNLESGDFGVYYCQQYEFFGQGTKVQVDIKRTVAAPSVFIFPPSDEQLKSGTASVVCLLNNFYPREAKVQWKVDNALQSGNSQESVTEQDSKDSTYSLSSTLTLSKADYEKHKVYACEVTHQGLSSPVTKSFNRGEC
B4: VRC07-523LS.v11 (antibody, human IgG1, kappa)
heavy: QVRLSQSGGQMKKPGDSMRISCRASGYEFINCPINWIRLAPGKRPEWMGWMKPRFGAVSYARQLQGRVTMTRQLSQDPDDPDWGTAFLELRSLTSDDTAVYFCTRGKYCTARDYYNWDFEHWGQGTPVTVSS[human IgG1 constant region with changes cut from this listing]
light: LTQSPGTLSLSPGETAIISCDTSQYGSLAWYQQRPGQAPRLVIYSGSTRAAGIPDRFSGSRWGPDYNLTISNLESGDFGVYYCQQYEFFGQGTKVQVDIKRTVAAPSVFIFPPSDEQLKSGTASVVCLLNNFYPREAKVQWKVDNALQSGNSQESVTEQDSKDSTYSLSSTLTLSKADYEKHKVYACEVTHQGLSSPVTKSFNRGEC

What was measured:
[1] = target: HIV-1 Env of the 208-virus panel (Env-pseudoviruses); assay: cell-based or functional assay
[2] = target: HIV-1 Env of the 208-virus panel (Env-pseudoviruses); assay: cell-based or functional assay; remark: listed apart in the source

Row | Binder | neutralization of Env-pseudoviruses on TZM-bl cells, share of the panel at IC80<1 µg/ml (% of viruses (208-virus panel)) [1] | neutralization of Env-pseudoviruses on TZM-bl cells, share of the panel at IC80 less than 1 µg/ml (% of the 208-virus panel) [2]
1 | B1 | 78 | –
2 | B2 | 73 | –
3 | B3 | – | 92
4 | B4 | – | 92
